Results: PubChem BioAssay AID1240 (Sanford-Burnham Center for Chemical Genomics, 2008)
Screen size: about 50,000 compounds; about 800 (1.6%) showed an effect of 50% or more. This is one part of the list.

Target: Bcl-2-like protein 10 (Homo sapiens) (UniProt Q9HD36)
Experiment: Phenotype converters, Bcl-B/TR3 peptide binding displacement, primary biochemical FP (AID 1240);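 also: 0% = Bcl-B with tracer peptide and DMSO and 100% = tracer peptide lacking Bcl-B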
Conditions: GST-Bcl-B / FITC-TR3 peptide fluorescence polarization; stronger effect = higher value; compound at 3.75 mg/L

Chain of UniProt Q9HD36 (Q9HD36 whole entry, looked up): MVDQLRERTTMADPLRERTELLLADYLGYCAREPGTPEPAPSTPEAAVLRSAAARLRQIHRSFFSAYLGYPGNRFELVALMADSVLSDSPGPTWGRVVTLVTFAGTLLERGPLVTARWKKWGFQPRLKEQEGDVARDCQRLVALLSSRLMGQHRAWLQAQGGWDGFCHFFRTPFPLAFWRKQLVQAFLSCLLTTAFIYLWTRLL

**Q.** Which displacement does the source give for `CCOC(=O)C1=C(O)CSC1=Nc1cccc(Cl)c1` here?
**A.** -7.8%

**Q.** With `COC(=O)c1c(NC(=O)c2cccc([N+](=O)[O-])c2)sc2c1CCC2` as the compound, how does the displacement read?
**A.** 7%

**Q.** With `CCc1nc2ccc(Oc3ccc4nc(CC)[nH]c4c3)cc2[nH]1` as the compound, how does the displacement read?
**A.** 12.5%

**Q.** `CC(C)C(=O)Nc1cc(C(F)(F)F)cc(C(F)(F)F)c1` was tested. Which displacement did it give?
**A.** -2.9%

**Q.** For `O=C(Nc1ccc([N+](=O)[O-])cc1)c1ccc2c(c1)C1C=CCC1C(c1ccc(Cl)cc1)N2` (centres undefined), which displacement is on record?
**A.** -7.2%

**Q.** With `Cc1ccc(-c2ccccc2)n1-c1ccc(C(=O)O)cc1` as the compound, how does the displacement read?
**A.** 21.4%

**Q.** Which displacement does the source give for `CC(=O)N(C)c1ccc(NC(=O)c2cccc([N+](=O)[O-])c2)cc1` here?
**A.** -0.5%

**Q.** How did the displacement turn out when `COc1ccc(C2Nc3ccccc3C(=O)N2Cc2ccco2)cc1Cn1nc(C)c([N+](=O)[O-])c1C` (centres undefined) was run?
**A.** 15.8%

**Q.** With `Nc1nc(-c2ccccc2)cc(N2CCCCC2)n1` as the compound, how does the displacement read?
**A.** -9%

**Q.** How did the displacement turn out when `CC(C)P(=O)(c1cccc(C(=O)O)c1)C(C)C` was run?
**A.** 14.4%

**Q.** How did the displacement turn out when `CCCC(=O)Nc1ccc(C)cc1[N+](=O)[O-]` was run?
**A.** 12.6%

**Q.** Which displacement does the source give for `COc1ccc(C(=O)O/N=C2/C(=O)N(C)c3ccccc32)cc1[N+](=O)[O-]` here?
**A.** 3%

**Q.** `CCOc1ccc(-n2c(O)c(C=NCCCO)c(=O)[nH]c2=O)cc1` was tested. Which displacement did it give?
**A.** -7.3%

**Q.** How did the displacement turn out when `CC1CN(C)C(c2ccccc2)CC1=O` (centres undefined) was run?
**A.** 9.2%

**Q.** Which displacement does the source give for `O=C1c2ccccc2C(=O)N1c1ncc(Cc2cccc(C(F)(F)F)c2)s1` here?
**A.** -5.8%

**Q.** `CCOc1ccc(C=NNC(=O)CNS(=O)(=O)N2CCOCC2)cc1` was tested. Which displacement did it give?
**A.** -1.8%

**Q.** How did the displacement turn out when `CS(=O)(=O)N(Cc1ccc(C(=O)N2CCN(c3ccccc3)CC2)cc1)c1ccccc1` was run?
**A.** 1.4%

**Q.** Which displacement does the source give for `COc1cc(C(C2=C(O)CC(C)(C)CC2=O)C2C(=O)CC(C)(C)CC2=O)cc(OC)c1OC` (centres undefined) here?
**A.** -7.8%

**Q.** `O=C(Nc1cccc([N+](=O)[O-])c1)c1ccc(-c2ccccc2)cc1` was tested. Which displacement did it give?
**A.** 24.6%

**Q.** Which displacement does the source give for `O=C(N/N=C/C=N/NC(=O)c1ccccc1Cl)c1ccccc1Cl` here?
**A.** 4.1%

**Q.** How did the displacement turn out when `O=C(Cc1ccccc1)Nc1cc(C(=O)O)cc(C(=O)O)c1` was run?
**A.** 0.4%

**Q.** How did the displacement turn out when `Cc1ccc(C(=O)O/N=C(\N)c2ccc(C)cc2)cc1` was run?
**A.** -12.7%

**Q.** `COC(=O)c1ccc(/C=C2\SC(=NCc3ccccc3)N(Cc3ccccc3)C2=O)cc1` was tested. Which displacement did it give?
**A.** 11%

**Q.** Which displacement does the source give for `O=C(CCC1CCCC1)Nc1cccc(F)c1` here?
**A.** -9.7%

**Q.** How did the displacement turn out when `O=C1NN(c2ccccc2)C(=O)/C1=C/c1cccc(F)c1` was run?
**A.** -4.8%

**Q.** For `COc1ccc(OCC(=O)Nc2ccc(S(=O)(=O)C(F)F)cc2)cc1`, which displacement is on record?
**A.** -1.2%

**Q.** With `O=C(N/N=C/c1ccc(I)cc1)C1CC(=O)N(c2ccccc2)C1` (centres undefined) as the compound, how does the displacement read?
**A.** -13%

**Q.** For `CC(=O)NS(=O)(=O)c1ccc(NC(=O)/C=C/c2ccc(F)cc2)cc1`, which displacement is on record?
**A.** -5.1%

**Q.** `COc1ccc(C(=O)Nc2cc(C(F)(F)F)ccc2Cl)cc1` was tested. Which displacement did it give?
**A.** 13.2%

**Q.** Which displacement does the source give for `CCOC(=O)c1c(-c2ccccc2)oc2ccc(OC(=O)c3cccc([N+](=O)[O-])c3)cc12` here?
**A.** 10.8%

**Q.** For `CCOc1cccc(C(=O)Nc2ccc(I)cc2Cl)c1`, which displacement is on record?
**A.** 10.7%

**Q.** For `CC(C)(C)c1ccc(C(=O)N2CCCCCC2)cc1`, which displacement is on record?
**A.** 7.2%

**Q.** `CCCCN1C(=O)/C(=C/c2c(NCCCn3ccnc3)nc3c(C)cccn3c2=O)SC1=S` was tested. Which displacement did it give?
**A.** -17.7%

**Q.** How did the displacement turn out when `CCOc1ccccc1N/C(=N/c1nc(C)cc(C)n1)NC(=O)c1ccccc1` was run?
**A.** -15.9%

**Q.** With `CN(c1ccc(C(=O)N2CCN(c3ccccc3)CC2)cc1)S(=O)(=O)c1ccccc1` as the compound, how does the displacement read?
**A.** -0.8%

**Q.** How did the displacement turn out when `O=C(Nc1ccc(Cl)cc1)Nc1ccc2c(c1)OCCO2` was run?
**A.** -28.9%

**Q.** For `CCOC(=O)C1=C(C)N=c2s/c(=C\c3ccc(OC)c(O)c3)c(=O)n2C1c1ccc(Cl)cc1` (centres undefined), which displacement is on record?
**A.** -5.3%

**Q.** `O=C(CC(c1ccccc1)c1ccccc1)N1CCN(c2cccc(Cl)c2)CC1` was tested. Which displacement did it give?
**A.** -25.1%

**Q.** How did the displacement turn out when `Cc1ccc(OCC(=O)N2CCN(c3ccccc3)CC2)c(C)c1` was run?
**A.** 8%

**Q.** How did the displacement turn out when `O=C1NC(=O)/C(=C\c2ccncc2)S1` was run?
**A.** 11.3%

**Q.** How did the displacement turn out when `O=C(COc1ccccc1O)NCCN1CCOCC1` was run?
**A.** 5%

**Q.** For `CC1CCN(C(=O)c2cc3n(n2)C(C(F)(F)F)CC(c2ccccc2)N3)CC1` (centres undefined), which displacement is on record?
**A.** 16%

**Q.** How did the displacement turn out when `COC(=O)C1=C(C)N(C)C(C)=C(C(=O)OC)C1c1ccccn1` was run?
**A.** -11%

**Q.** With `CC(C)(C)c1cc(C(=O)N/N=C/C=C/c2ccccc2)n[nH]1` as the compound, how does the displacement read?
**A.** -9.5%

**Q.** For `O=C1c2cccc3c4ccccc4n(c23)C(=O)C1(O)O`, which displacement is on record?
**A.** 7.8%

**Q.** `CCOc1ccc(OCC)c(C2C3CCCCC=C3C(C#N)=C(N)C2(C#N)C#N)c1` (centres undefined) was tested. Which displacement did it give?
**A.** 11%

**Q.** `COc1ccc(Br)cc1/C=C/C(=O)Nc1cccnc1` was tested. Which displacement did it give?
**A.** 0.6%

**Q.** How did the displacement turn out when `Cc1ccccc1N(CC(=O)NCc1ccncc1)S(=O)(=O)c1ccccc1` was run?
**A.** 2.7%

**Q.** `O=C(Nc1cccc2ccccc12)c1cc(Br)ccc1Cl` was tested. Which displacement did it give?
**A.** 14.4%

**Q.** With `O=C(Nc1cccc2c1C(=O)c1c(NC(=O)c3ccccc3)cccc1C2=O)c1ccccc1` as the compound, how does the displacement read?
**A.** -12.3%

**Q.** With `CC(C(=O)c1ccc(-c2ccccc2)cc1)[n+]1ccccc1` (centres undefined) as the compound, how does the displacement read?
**A.** 7.5%

**Q.** For `CC(=O)c1cccc(N2C(=O)C3C4C=CC(C4=C(C)C)C3C2=O)c1` (centres undefined), which displacement is on record?
**A.** 9%

**Q.** `COC(=O)CCC(=O)c1ccc(C(C)(C)c2ccc(C(=O)CCC(=O)OC)s2)s1` was tested. Which displacement did it give?
**A.** -6.8%

**Q.** Which displacement does the source give for `c1coc(Cn2c(-c3ccco3)nc3ccccc32)c1` here?
**A.** 5.6%

**Q.** How did the displacement turn out when `CC1CC(O)N(c2ccccc2)C(=S)N1` (centres undefined) was run?
**A.** 8.5%

**Q.** For `CCC(=O)N1CC23C=CC(CC2CC12CCCCC2)O3` (centres undefined), which displacement is on record?
**A.** -7.4%

**Q.** Which displacement does the source give for `Cc1ccc(NC(=O)c2ccc(Cl)cc2Cl)c([N+](=O)[O-])c1` here?
**A.** 3.6%

**Q.** For `O=C(N/N=C/c1c[nH]c2ccccc12)C1CC(=O)N(c2ccccc2)C1` (centres undefined), which displacement is on record?
**A.** -8.3%

**Q.** For `Cc1cc2[nH]c(=O)c(CCO)c(C)n2n1`, which displacement is on record?
**A.** -5.1%

**Q.** How did the displacement turn out when `O=C(Nc1nncs1)C(Sc1ccccc1)c1ccccc1` (centres undefined) was run?
**A.** -4.9%

**Q.** How did the displacement turn out when `O=C(Nc1ccc(Br)cc1)NS(=O)(=O)c1ccccc1Cl` was run?
**A.** 4.1%

**Q.** `COC(=O)c1c(NC(=O)/C=C/c2ccccc2)sc2c1C(C(=O)OC)CC2` (centres undefined) was tested. Which displacement did it give?
**A.** -28.4%

**Q.** For `O=C(NCc1ccc(Cl)c(Cl)c1)c1ccc(Br)cc1`, which displacement is on record?
**A.** 11.4%

**Q.** `COc1cccc(C2C(C(=O)Nc3ccccc3)=C(C)N=c3s/c(=C\c4cccs4)c(=O)n32)c1` (centres undefined) was tested. Which displacement did it give?
**A.** 79.1%

**Q.** For `COCCOC(=O)c1c(C)oc2ccc(OC(=O)c3ccc(Cl)cc3)cc12`, which displacement is on record?
**A.** 5.4%

**Q.** `COc1ccc(NC(=O)/C(C#N)=C\c2ccc(Sc3ccccc3)o2)cc1` was tested. Which displacement did it give?
**A.** -3.6%

**Q.** For `Cc1cccc(/C=N/NC(=O)c2cccc(F)c2)c1O`, which displacement is on record?
**A.** -5.7%

**Q.** `COc1ccc(O)c(-c2cc(C(F)(F)F)nc(-c3ccccc3)n2)c1` was tested. Which displacement did it give?
**A.** 25.3%

**Q.** How did the displacement turn out when `CC1(C)Cc2c(sc3nc(-c4ccccc4Cl)n(N)c(=O)c23)CO1` was run?
**A.** 4.3%
